# From US12221481B2, “CD19 binding molecules and uses thereof” (Novartis AG, priority 2019, dated 2025)
# B1: CD3hi TSP1: Trispecific binding molecule: NEG258-based CD19 Fab, CD3hi anti-CD3 scFv, CD58 IgV domain, knob-into-hole silenced hIgG1 Fc (antibody)
# heavy: QVQLVQSGAEVKKPGASVKVSCKASGYTFTTYWIQWVRQAPGQRLEWMGAVYPGDADTRYTQKFQGRVTLTADRSASTAYMELSSLRSEDTAVYYCGRDAGLEYYALDYWGQGTLVTVSSASTKGPSVFPLAPSSKSTSGGTAALGCLVKDYFPEPVTVSWNSGALTSGVHTFPAVLQSSGLYSLSSVVTVPSSSLGTQTYICNVNHKPSNTKVDKRVEPKSCGGGGSGGGGSEVQLVESGGGLVQPGGSLKLSCAASGFTFNTYAMNWVRQASGKGLEWVGRIRSKYNNYATYYADSVKDRFTISRDDSKSTLYLQMNSLKTEDTAVYYCVRHGNFGNSYVSWFAYWGQGTLVTVSSGGGGSGGGGSGGGGSGGGGSQAVVTQEPSLTVSPGGTVTLTCRSSTGAVTTSNYANWVQQKPGQAPRGLIGGTNKRAPWTPARFSGSLLGDKAALTLSGAQPEDEAEYFCALWYSNLWVFGGGTKLTVLGGGGSDKTHTCPPCPAPELLGGPSVFLFPPKPKDTLMISRTPEVTCVVVAVSHEDPEVKFNWYVDGVEVHNAKTKPREEQYASTYRVVSVLTVLHQDWLNGKEYKCKVSNKALAAPIEKTISKAKGQPREPQVCTLPPSREEMTKNQVSLSCAVKGFYPSDIAVEWESNGQPENNYKTTPPVLDSDGSFFLVSKLTVDKSRWQQGNVFSCSVMHEALHNHYTQKSLSLSPGK
# light: EIVMTQSPATLSVSPGERATLSCRASQDVGTAVAWYQQKPGQAPRLLIYWASTRHTGIPARFSGSGSGTEFTLTISSLQSEDFAVYFCQQYANFPLYTFGQGTKLEIKRTVAAPSVFIFPPSDEQLKSGTASVVCLLNNFYPREAKVQWKVDNALQSGNSQESVTEQDSKDSTYSLSSTLTLSKADYEKHKVYACEVTHQGLSSPVTKSFNRGEC
# chain: SQQIYGVVYGNVTFHVPSNVPLKEVLWKKQKDKVAELENSEFRAFSSFKNRVYLDTVSGSLTIYNLTSSDEDEYEMESPNITDTMKFFLYVLESGGGGSDKTHTCPPCPAPELLGGPSVFLFPPKPKDTLMISRTPEVTCVVVAVSHEDPEVKFNWYVDGVEVHNAKTKPREEQYASTYRVVSVLTVLHQDWLNGKEYKCKVSNKALAAPIEKTISKAKGQPREPQVYTLPPCREEMTKNQVSLWCLVKGFYPSDIAVEWESNGQPENNYKTTPPVLDSDGSFFLYSKLTVDKSRWQQGNVFSCSVMHEALHNHYTQKSLSLSPGK
# Legend:
# [1] = system: CD19+ Nalm6-luc target cells; assay: RTCC against Nalm6 with sorted CD8 T cell subsets (Example 27); format: cell-based, human
# Text: Peripheral blood mononuclear cells (PBMCs) previously isolated from buffy coat donors (Bern Hospital) and cryopreserved were thawed and total T cells were isolated by negative selection using the Pan T cell Isolation Kit, human (Miltenyi Biotec, Cat #130-096-535) following the manufacturer's protocol. The positive fraction (called PBMCs-T cell depleted) was irradiated at 50Gy in order to be used as feeder in the co-culture.
# From the negative fraction, enriched in total T cells, CD8^+ T cells were then isolated by an additional step of negative selection using EasySep™ Human CD8+ T Cell Enrichment Kit (Stem Cell, Cat #19053). Untouched CD8^+ cells were then stained with an anti-CD28 antibody (Biolegend, Cat #302922) and sorted with a FACSAria (BD) according to the CD28 expression: CD8^+CD28^+ and CD8^+CD28^−. The purity of th sorted cells was >95%. […]
# Plates were incubated in a 37° C. incubator with 5% CO2 for 72 hrs. Following the co-incubation, One-Glo (Promega, catalog #E6110) was added to all wells and the luminescence signal was subsequently measured on an ELISA Reader 4.18 1 (Biotek, Synergy H1). […] The percent RTCC of target cells was calculated using the following formula: [100−(sample/maximal signal)*100%].
# T cells = assay: TBM and BBM mediated T cell proliferation (Example 20); format: cell-based, human
# Protocol: Briefly, OCI-LY-19, Karpas422, and Toledo target cells stably expressing firefly luciferase were plated in a 96 well plate in T Cell Media (TCM) (RPMI-1640, ThermoFisher Scientific, Cat #11875-085), 10% FBS (Seradigm, Cat #1500-500), 1% L-Glutamine (Thermo Fisher Scientific, Cat #25830-081), 1% Non Essential Amino Acids (Thermo Fisher Scientific, Cat #11140-050), 1% Pen/Strep (Thermo Fisher Scientific, Cat #15070063), 1% HEPES (Thermo Fisher Scientific, Cat #15630080), Sodium Pyruvate (Thermo Fisher Scientific, Cat #11360-070), 0.1% Beta-mercaptoethanol (Thermo Fisher Scientific, Cat #21985-023)]. PBMCs previously isolated and cryopreserved from 2 Leukopak donors were thawed and Pan T cells were isolated (as described earlier). Isolated T cells were labelled with 5 μM Cell Trace Violet (CTV) (Thermo Fisher Scientific, Cat #C34557) following the manufacturer's protocol and were co-cultured with target cells at an E:T ratio of 1:3. A dilution series of CD3med TSP1, CD3hi TSP1, CD3hi BSP1, CD3hi TSP1C, and blinatumomab ranging from 2.5 nM-0.0006 nM was added to cells and the plates were incubated in a 5% CO2, 37° C. incubator for 96 hrs. […]
molecule,measurement,setting,value
B1,RTCC with CD8+CD28- T cells,"[1]; 0.1 nM or 1 nM, in presence of irradiated feeder, compared to the other treatments",increase
same,RTCC activity,"[1]; sorted CD8 T cells, 72 hrs, compared to control antibody CD3hi TSP1C",mediated RTCC activity
same,"T cell proliferation, potency compared between constructs","T cells; E:T 1:3, 96 hrs",more potent activity than CD3med TSP1 and CD3hi BSP1
same,"T cell proliferation, maximum percentage of proliferated T cells",T cells; in the presence of Karpas420 (so in the source),more effectively induced T cell proliferation
